The text below walks through data of ChEMBL document CHEMBL1201862, “PubChem BioAssay data set” (2004).

A word on the GI50: it is the concentration giving 50% growth inhibition.

Each structure is given as a SMILES string. Values joined by “and” are separate entries in the source; they are usually repeats but may differ in a detail not shown here. Equal values may be shown once.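 Assay format: 96-well plates, 48-hour exposure. GI50 is the concentration that inhibits growth by half.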 Active and inactive are the calls of the source. Cut-off read from the data, not from the text of the source: active = GI50 up to about 1.1 µM and inactive = higher.

The assay has as its system NCI-H322M. Put plainly: DTP human tumour cell line panel, 48 h.
Consider `CC(NC(=O)c1ccccc1)(C(=O)O)C(=O)O`, for which the GI50 was inactive: > 100 µM. `COc1ccc(C2c3cc4c(cc3OC(N3CCOCC3)C2C)OCO4)c(OC)c1` (configuration not stated): the GI50 is inactive: 11.1 µM. As for `CC(=O)OC(C)C1C2=C(C(=O)CC1(C)O)C(=O)c1c(ccc(-c3ccc4c(c3O)C(=O)C3=C(C4=O)C(C(C)OC(C)=O)C(C)(O)CC3=O)c1O)C2=O` (configuration not stated), the GI50 is inactive: 12.5 µM. To `COC1=C(C)C(=O)C2=C(C1=O)C(CO)N1C(C#N)C3CC4C(C1C2N1CCOC41)N3C` (configuration not stated) belongs active: 242 nM and active: 282 nM; to `O=C(Nc1nnn[nH]1)c1nc(O)cc(-c2ccccc2)n1`, inactive: > 100 µM. To `CCCc1ccc(/N=C\c2cc(OC)c(OC)c(OC)c2)cc1` belongs inactive: > 100 µM; to `CS/C(=N\Nc1cnc2ccccc2n1)NS(=O)(=O)c1cc(C)c(Cl)cc1Cl`, inactive: > 100 µM; to `CC(C)CC(NC(=O)C(CCI)Cc1ccccc1)C(=O)Nc1ccccc1` (configuration not stated), inactive: > 100 µM.

As to `CCOC(=O)c1ccc(OCc2nc3cc(C(F)(F)F)ccc3nc2-c2ccccc2)cc1`, the GI50 is inactive: > 100 µM.

Regarding `CC(C)(C)[Si](C)(C)OCCc1ccccc1C1CC2(S(=O)(=O)c3ccccc3)ON1CC2S(=O)(=O)c1ccccc1` (configuration not stated), the GI50 is inactive: > 100 µM. To `COc1cc(OC)c(C/C=C/c2ccccc2)cc1O` belongs inactive: 16 µM. As to `CCN1c2ccccc2NC(=S)c2c(-c3ccccc3)n[nH]c21`, the GI50 is inactive: 62.1 µM. On to `O=C(Cc1ccc(OCc2cccc(Cl)c2)cc1)NO`, for which the GI50 is inactive: 19.5 µM. To `O=C(Cn1c(C(=O)/C=C/c2cccs2)nc2ccccc21)c1ccc(Cl)cc1` belongs inactive: 31.5 µM. Take `COc1ccc(N2C(=O)c3cc(C)cnc3S2(=O)=O)cc1`: the GI50 was inactive: > 100 µM. For the compound `Cc1ccc(S(=O)(=O)N(CC(O)COc2ccccc2)c2c(F)c(F)c(F)c(F)c2F)cc1` (configuration not stated), the GI50 is inactive: 20.2 µM. The figure for `O=C1Nc2cc(Cl)ccc2N=CC1NC(=O)C(c1ccccc1)c1ccccc1Cl` (configuration not stated) is inactive: > 100 µM. The figure for `COc1ccc(C(=O)/C=C/c2ccc3c(c2)OCO3)c(OCc2ccccc2)c1` is inactive: 48.9 µM.

Regarding `CC(=O)OCC(OC(C)=O)C(OC(C)=O)C(OC(C)=O)C(=O)CNn1c(-c2ccccc2Cl)nc2ccc(Br)cc2c1=O` (configuration not stated), the GI50 was inactive: > 100 µM.

Consider `COc1ccc(C[C@@H](CO)NC2=C(C#N)CCC2)cc1`, for which the GI50 was inactive: 29.8 µM. The figure for `O=S(=O)(Nc1nc2ccccc2nc1Nc1cccc2ccccc12)c1ccccc1` is inactive: 25.8 µM; for `CC1=NN2C(=N)/C(=C/c3ccco3)C(=O)N=C2S1` it is inactive: > 100 µM. The figure for `O=[N+]([O-])c1nccn1COCCBr` is inactive: > 100 µM; for `Cc1c(-c2nc3ccccc3[nH]2)c(=O)n(-c2ccccc2)n1C` it is inactive: > 100 µM; for `COc1ccc2c(C)cc(N/N=C/c3ccc(C)s3)nc2c1` it is inactive: 6.37 µM.

With `COc1nc2[nH]ccc2c(=O)[nH]1`, the GI50 is inactive: > 100 µM. To `CCOC(=O)CCC1(CCC(=O)OCC)CCCCCCCCC(CCC(=O)OCC)(CCC(=O)OCC)C(=O)C1=O` belongs inactive: > 100 µM. In the case of `O=C(NCCC(F)(F)C(F)(F)C(F)(F)C(F)(F)F)NC1OC(CO)C(O)C(O)C1O` (configuration not stated), the GI50 was inactive: > 100 µM. To `CN(C)CCNC(=O)c1cccc2[nH]c(-c3ccc(Cl)cc3)nc12` belongs inactive: 10.3 µM; to `O=c1[nH]c(=S)[nH]cc1CN1CCOCC1`, inactive: > 100 µM; to `CCCCCCCCCCCC(=O)OCC1OC(n2cc(F)c(=O)[nH]c2=O)C(N)C(O)C1O` (configuration not stated), inactive: > 100 µM. The figure for `COc1ccc(/C=C/c2cnnc3ccccc23)cc1OC` is inactive: > 10 µM; for `CC(C)(c1cn(Cc2ccccc2)c2ccccc12)c1cn(Cc2ccccc2)c2ccccc12` it is inactive: > 100 µM. The figure for `O=C(/C=C\c1ccc(/C=C/C(=O)Nc2cccc(C3=NCCCN3)c2)cc1)Nc1cccc(C2=NCCCN2)c1` is inactive: > 100 µM; for `Cc1c(-c2ccccc2)[nH]c2cc(Cl)ccc2c1=O` it is inactive: > 100 µM; for `[N-]=[N+]=NC1(c2ccccc2)C(=O)c2cccc3c4ccccc4n(c23)C1=O` (configuration not stated) it is inactive: > 100 µM. For the compound `COc1ccc(C2CC(C)(O)Oc3cc4c(cc32)OCO4)cc1` (configuration not stated), the GI50 is inactive: 46.2 µM. For `COc1ccc2c(c1)CCCN1Cc3ccccc3CC21` (configuration not stated), the GI50 was inactive: > 100 µM. Turning to `N#CCCN(CCC#N)c1ccc(C(=N/c2ccc(F)cc2)/N=N/c2ccc(Cl)cc2)cc1`, the GI50 is inactive: > 100 µM. To `Cc1cc2c(cc1N)C(C)C1(CCC(=O)N2Cc2ccccc2)OCCO1` (configuration not stated) belongs inactive: > 100 µM; to `C=C(CN(C)C)C(=O)c1ccccc1Cl`, inactive: > 100 µM; to `O=C1C(Cl)C(c2ccc(O)cc2)N1n1cnc2ccccc2c1=O` (configuration not stated), inactive: > 100 µM. As for `CN(C)c1ccc(/C=C(\NC(=O)c2ccccc2)C2=NC(CCC(=O)O)C(=O)O2)cc1` (configuration not stated), the GI50 is inactive: > 50 µM. For `CC(O)(CNS(=O)(=O)c1ccccc1)c1ccccc1` (configuration not stated), the GI50 is inactive: > 100 µM. The figure for `N#CCCN(CCC#N)c1ccc(/C=C2\SC(=S)NC2=O)cc1Br` is inactive: > 100 µM; for `O=Nn1c2ccccc2c2cc([N+](=O)[O-])ccc21` it is inactive: 14.2 µM; for `Brc1ccc2[nH]c3c(C4=NCCC4)nccc3c2c1` it is inactive: 14.5 µM. The figure for `Cc1cc(C)nc(NS(=O)(=O)c2ccc(NC(=O)c3ccc4nc5ccccc5c(Nc5ccc(S(=O)(=O)Nc6nc(C)cc(C)n6)cc5)c4c3)cc2)n1` is inactive: 59.3 µM; for `FC(F)(F)c1ccc(C2ON=C(c3ccccc3)N2C23CC4CC(CC(C4)C2)C3)cc1` (configuration not stated) it is inactive: > 10 µM; for `CCO/C([O-])=C(\C(=O)c1ccccc1)[n+]1c(C)n(C)c2ccccc21` it is inactive: > 100 µM. On to `O=c1[nH]c(=O)n(C2CC(O)C(CO)O2)cc1/N=N/NCCCc1ccccc1` (configuration not stated), for which the GI50 is inactive: > 100 µM. On to `CC(=O)c1ccccc1NC(=O)C(=O)C(C(=O)c1ccc2ccccc2c1)C1OC(=O)c2ccccc21` (configuration not stated), for which the GI50 was inactive: 15 µM.

For `CC(=O)O[C@H]1CC[C@@]2(C)C(=CC[C@H]3C(CC#N)[C@@](C)(C#N)CCC32)C1` (some centres not stated), the GI50 was inactive: > 100 µM. The figure for `CO[C@]12CCC(=O)N1C=Cc1c2[nH]c2ccccc12` is inactive: > 100 µM.

Take `COc1cc(OC2OC(COC(=O)c3cc(O)c(O)c(O)c3)C(O)C(O)C2O)ccc1O` (configuration not stated): the GI50 was inactive: > 100 µM. In the case of `CC(SC(=O)Nc1ccc(/N=N/c2ccccc2)cc1)C(=O)O` (configuration not stated), the GI50 is inactive: 61.5 µM. To `COc1cc2[nH]c3c(c2cc1OC)CCN[C@]31CC[C@]2(CC3c4c(cc(OC)c(O)c42)CCN3C)C[C@H]1OC` (some centres not stated) belongs inactive: 32.3 µM.

Take `CN(C)c1ccc(/C=c2/sc3nc(=O)c(-c4ccccc4NC(=O)C(F)(F)F)nn3c2=O)cc1`: the GI50 was inactive: > 100 µM. To `O=C1O/C(=C(/Cl)c2cccc3ccccc23)c2ccccc21` belongs inactive: > 100 µM. The figure for `CCN(CC)CCCNc1ccc([N+](=O)[O-])c2nc3ccccc3c(N)c12` is active: 0.423 µM.

`O=C1C[C@@H]2[C@@H](C=CC23CC3)N1O`: the GI50 is inactive: > 100 µM. On to `CC12CCC(C)(c3cc(O)c(O)cc31)c1cc(O)c(O)cc12`, for which the GI50 was inactive: 19.6 µM. For the compound `N/C(=N\O)N/N=C/c1cc(I)cc(I)c1O`, the GI50 was inactive: 46.5 µM.

On to `O=C(Nc1ccccc1-c1nn(C(=S)Nc2ccccc2)c(=S)n(C(=S)Nc2ccccc2)c1=O)C(F)(F)F`, for which the GI50 is inactive: 24.1 µM. Consider `O=C1OC[C@@H]2[C@@H](O)CCCCCN12`, for which the GI50 was inactive: > 100 µM. Consider `C1=N\CCN2CCN(CC/N=C\c3ccccc3OCc3cccc(n3)COc3ccccc3/1)CC2`, for which the GI50 is inactive: > 50 µM. `COc1ccc2nc3c(C(=O)NCCN(C)C)cccc3nc2c1`: the GI50 is inactive: 5.71 µM. To `CCN(CC)C(=O)CCn1ccc(=O)[nH]c1=O` belongs inactive: > 100 µM; to `CCOc1ccc(NC(=O)CC#N)cc1`, inactive: > 100 µM; to `CN(Cc1ccccc1)C1(N(C)Cc2ccccc2)CC1`, inactive: > 100 µM.

On to `CN(C)/N=C1\C=C2CC[C@H](O[Si](C)(C)C(C)(C)C)[C@@]2(C)CC1`, for which the GI50 was inactive: 22 µM. As for `CNC1C(O)C(OC2C(N)CC(N)C(OC3OC(CN)=CCC3N)C2O)OCC1(C)O` (configuration not stated), the GI50 is inactive: > 100 µM. The figure for `COc1ccc(/C(C)=N/NC(=O)c2ccncc2)c(OC)c1` is inactive: > 10 µM; for `CN(C)/C=N/c1nc2c(ncn2C2OC(CO)C(O)C2O)c(=O)[nH]1` (configuration not stated) it is inactive: > 100 µM; for `C=C1CC(c2ccc(OCCCN3C(=O)c4ccccc4C3=O)cc2)OC1=O` (configuration not stated) it is inactive: 16.8 µM. To `C/C1=C\[C@H](C)C[C@H](C)OC(=O)C[C@H](c2ccc(O)cc2)NC(=O)[C@H](Cc2ccc(O)c(I)c2)N(C)C(=O)[C@H](C)NC(=O)[C@@H](C)C1` belongs active: 0.189 µM; to `CCCCCC(=O)OCCOCCOCCOCCOCCOCc1ccccc1`, inactive: > 100 µM; to `O=C(CSc1nnc[nH]1)C[P+](c1ccccc1)(c1ccccc1)c1ccccc1`, inactive: > 100 µM. The figure for `COc1cccc2c1C(=O)c1c(O)c3c(c(O)c1C2=O)CC(O)(C(O)CO)CC3OC1CC2C(OC3COCC(C#N)N32)C(C)O1` (configuration not stated) is active: < 0.01 µM. With `C[C@H](CCC1SC1(C)C)C1CCC2(C)C3=C(CC[C@]12C)[C@@]1(C)CC[C@H](O)C(C)(C)C1CC3` (some centres not stated), the GI50 was inactive: > 100 µM. The figure for `COc1cc(C2c3cc4c(cc3[C@@H](NCCN3CCCCC3)C3COC(=O)[C@H]23)OCO4)cc(OC)c1O` (some centres not stated) is inactive: 3.72 µM; for `COc1ccc2nc3ccccc3c(NCCCCCCN(CCCl)CCCl)c2c1` it is active: 0.167 µM.
